Results taken from the supplement of paper PMC12645437, “Orthogonal IMiD-Degron Pairs Induce Selective Protein Degradation in Cells” (ACS Chemical Biology, 2025).
This is one part of the list.

B1: Q9UKT9 (peptide)
chain: FSCNQCGRQFTQKGNLLRHIKL
B2: Q9UKT9 (peptide)
chain: LTCPICGFVCTQKGNLLRHIKL
B3: Q9UKT9 (peptide)
chain: FFCNQCGRDFTQKGNLLRHIKL
B4: Q9UKT9 (peptide)
chain: FECDVCGAAFTQKGNLLRHIKL
B5: Q9UKT9 (peptide)
chain: FDCSVCGHAFTQKGNLLRHIKL
B6: Q9UKT9 (peptide)
chain: FLCDICGADFTQKGNLLRHIKL
B7: Q9UKT9 (peptide)
chain: FDCPVCGASFTQKGNLLRHIKL
B8: Q9UKT9 (peptide)
chain: FMCDICGAWFTQKGNLLRHIKL
B9: Q9UKT9 (peptide)
chain: LICEICGFRCTQKGNLLRHIKL
B10: Q9UKT9 (peptide)
chain: FHCEICGRNFTQKGNLLRHIKL
B11: Q9UKT9 (peptide)
chain: FVCNQCGHQFTQKGNLLRHIKL
B12: Q9UKT9 (peptide)
chain: FMCNQCGRVFTQKGNLLRHIKL
B13: Q9UKT9 (peptide)
chain: FLCDVCGAMFTQKGNLLRHIKL
B14: Q9UKT9 (peptide)
chain: FGCEVCGAYFTQKGNLLRHIKL
B15: Q9UKT9 (peptide)
chain: LCCNQCGFACTQKGNLLRHIKL
B16: Q9UKT9 (peptide)
chain: FMCEQCGAFFTQKGNLLRHIKL
B17: Q9UKT9 (peptide)
chain: FTCEVCGAMFTQKGNLLRHIKL
B18: Q9UKT9 (peptide)
chain: FHCEQCGARFTQKGNLLRHIKL
B19: Q9UKT9 (peptide)
chain: FMCDQCGATFTQKGNLLRHIKL
B20: Q9UKT9 (peptide)
chain: FFCEICGRKFTQKGNLLRHIKL
B21: Q9UKT9 (peptide)
chain: FVCEVCGAKFTQKGNLLRHIKL
B22: Q9UKT9 (peptide)
chain: FRCNQCGRRFTQKGNLLRHIKL
B23: Q9UKT9 (peptide)
chain: FACEQCGAAFTQKGNLLRHIKL
B24: Q9UKT9 (peptide)
chain: FCCEICGRYFTQKGNLLRHIKL
B25: Q9UKT9 (peptide)
chain: FICPICGREFTQKGNLLRHIKL
B26: Q9UKT9 (peptide)
chain: FVCEICGHYFTQKGNLLRHIKL
B27: Q9UKT9 (peptide)
chain: FTCPICGAHFTQKGNLLRHIKL
B28: Q9UKT9 (peptide)
chain: FQCNQCGREFTQKGNLLRHIKL
B29: Q9UKT9 (peptide)
chain: FGCNQCGRFFTQKGNLLRHIKL
B30: Q9UKT9 (peptide)
chain: FWCNVCGAEFTQKGNLLRHIKL
B31: Q9UKT9 (peptide)
chain: FSCNQCGHQFTQKGNLLRHIKL
B32: Q9UKT9 (peptide)
chain: FCCNVCGADFTQKGNLLRHIKL

biological target: no compound (DMSO); assay: log2 fold change of degron read counts, EGFP-low vs EGFP+ sorted cells; higher = lower degron-EGFP level without compound (poor expression or instability); details: compound: DMSO control; 18 h
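Also: jurkat cells carrying a lentiviral library of mutant zinc finger degrons fused to EGFP plus mCherry, mCherry+ cells FACS sorted, degron abundance counted by next-generation sequencing.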

| Sequence | log2 fold change of degron read counts |
| --- | --- |
| B1 | -0.788 |
| B2 | 0.69 |
| B3 | -0.367 |
| B4 | -2.17 |
| B5 | -0.22 |
| B6 | -2.62 |
| B7 | -0.683 |
| B8 | -0.378 |
| B9 | 0.29 |
| B10 | -1.06 |
| B11 | -0.375 |
| B12 | -0.176 |
| B13 | -0.656 |
| B14 | -0.441 |
| B15 | 0.752 |
| B16 | -1.16 |

| Sequence | log2 fold change of degron read counts |
| --- | --- |
| B17 | -1.36 |
| B18 | -0.881 |
| B19 | -1.47 |
| B20 | -0.712 |
| B21 | -2.84 |
| B22 | -0.434 |
| B23 | -1.7 |
| B24 | -0.334 |
| B25 | -0.548 |
| B26 | -1.22 |
| B27 | -0.356 |
| B28 | -1.65 |
| B29 | 1.02 |
| B30 | -0.829 |
| B31 | -0.157 |
| B32 | -1.03 |
